# Reference: the supplement of paper PMC12217912
# The other results are listed elsewhere or left out. Sequences were assembled here from the parent chain. Inactive controls read about 0.05.
# B1: TEV protease; numbered along this chain (parent)
# chain: MGESLFKGPRDYNPISSSICHLTNESDGHTTSLYGIGFGPFIITNKHLFRRNNGTLVVQSLHGVFKVKDTTTLQQHLVDGRDMIIIRMPKDFPPFPQKLKFREPQREERICLVTTNFQTKSMSSMVSDTSCTFPSGDGIFWKHWIQTKDGQCGSPLVSTRDGFIVGIHSASNFTNTNNYFTSVPKNFMELLTNQEAQQWVSGWRLNADSVLWGGHKVFMVKPEEPFQPVKEATQL
# Variants of: B1
# Assay: raw area under fraction-flipped curve 0-4 h after induction (AUC4h, not background-subtracted), DNA-recorder readout of cleavage of the substrate (dimensionless); higher = more cleavage of the substrate by the protease variant
# Settings: temperature: 34 °C; time window: 0-4 h after rhamnose induction
# Experimental: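 In vivo DNA recorder in E. coli TOP10(DE3) ΔrhaA at 34 °C. Each TEVp single-site mutant (parent TEVp 0) is paired with a single-site variant of the 7-mer TEVs (canonical ENLYFQ|S). The substrate sits between flexible linkers in a Bxb1-sfGFP-TEVs-SsrA fusion, so cleavage stabilises Bxb1 and speeds flipping of a recombination array, read by NGS. The value is the raw area under the fraction-flipped curve over 0-4 h after rhamnose induction (AUC4h), with ≥20 reads per time point. It is not background-subtracted; inactive controls average about 0.047.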
# 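Also: Bxb1 expression induced with 0.2% (w/v) L-rhamnose at OD600 near 0.5, cultures sampled hourly, flipped fraction per protease–substrate barcode pair counted by paired-end Illumina sequencing.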
Variant,area with substrate CNLYFQS,area with substrate DNLYFQS,area with substrate FNLYFQS,area with substrate GNLYFQS,area with substrate HNLYFQS,area with substrate INLYFQS,area with substrate KNLYFQS,area with substrate LNLYFQS,area with substrate MNLYFQS,area with substrate PNLYFQS,area with substrate QNLYFQS,area with substrate RNLYFQS,area with substrate SNLYFQS,area with substrate TNLYFQS,area with substrate VNLYFQS,area with substrate WNLYFQS,area with substrate NNLYFQS,area with substrate YNLYFQS
MGESLFKGPRDYNPISSSICVLTNESDGHTTSLYGIGFGPFIITNKHLFRRNNGTLVVQSLHGVFKVKDTTTLQQHLVDGRDMIIIRMPKDFPPFPQKLKFREPQREERICLVTTNFQTKSMSSMVSDTSCTFPSGDGIFWKHWIQTKDGQCGSPLVSTRDGFIVGIHSASNFTNTNNYFTSVPKNFMELLTNQEAQQWVSGWRLNADSVLWGGHKVFMVKPEEPFQPVKEATQL [H21V],0.0669,0.0762,0.0308,0.0574,0.0578,0.0686,0.0647,0.0621,0.0674,0.0718,0.114,0.0601,0.067,0.0617,0.0516,0.0552,,
MGESLFKGPRDYNPISSSICHCTNESDGHTTSLYGIGFGPFIITNKHLFRRNNGTLVVQSLHGVFKVKDTTTLQQHLVDGRDMIIIRMPKDFPPFPQKLKFREPQREERICLVTTNFQTKSMSSMVSDTSCTFPSGDGIFWKHWIQTKDGQCGSPLVSTRDGFIVGIHSASNFTNTNNYFTSVPKNFMELLTNQEAQQWVSGWRLNADSVLWGGHKVFMVKPEEPFQPVKEATQL [L22C],0.0589,0.0715,0.0644,0.0903,,0.061,0.0645,0.0691,,0.0666,,,0.0597,0.0571,,0.0528,0.0589,0.0567
MGESLFKGPRDYNPISSSICHDTNESDGHTTSLYGIGFGPFIITNKHLFRRNNGTLVVQSLHGVFKVKDTTTLQQHLVDGRDMIIIRMPKDFPPFPQKLKFREPQREERICLVTTNFQTKSMSSMVSDTSCTFPSGDGIFWKHWIQTKDGQCGSPLVSTRDGFIVGIHSASNFTNTNNYFTSVPKNFMELLTNQEAQQWVSGWRLNADSVLWGGHKVFMVKPEEPFQPVKEATQL [L22D],0.0483,0.051,0.0288,,0.0468,0.0497,,0.045,0.0173,0.0452,0.0458,0.0349,0.0541,0.0551,0.0423,0.0371,0.0646,0.0453
MGESLFKGPRDYNPISSSICHHTNESDGHTTSLYGIGFGPFIITNKHLFRRNNGTLVVQSLHGVFKVKDTTTLQQHLVDGRDMIIIRMPKDFPPFPQKLKFREPQREERICLVTTNFQTKSMSSMVSDTSCTFPSGDGIFWKHWIQTKDGQCGSPLVSTRDGFIVGIHSASNFTNTNNYFTSVPKNFMELLTNQEAQQWVSGWRLNADSVLWGGHKVFMVKPEEPFQPVKEATQL [L22H],0.0324,0.0378,0.0399,0.0253,0.0488,0.041,0.058,0.0507,0.0557,0.0491,,0.0476,0.0543,0.0474,0.0516,0.0536,0.0531,0.0403
MGESLFKGPRDYNPISSSICHSTNESDGHTTSLYGIGFGPFIITNKHLFRRNNGTLVVQSLHGVFKVKDTTTLQQHLVDGRDMIIIRMPKDFPPFPQKLKFREPQREERICLVTTNFQTKSMSSMVSDTSCTFPSGDGIFWKHWIQTKDGQCGSPLVSTRDGFIVGIHSASNFTNTNNYFTSVPKNFMELLTNQEAQQWVSGWRLNADSVLWGGHKVFMVKPEEPFQPVKEATQL [L22S],0.042,0.0444,0.0804,0.0361,0.0396,,0.0532,0.0453,0.0528,0.0479,0.0292,,0.0605,0.0464,0.0492,0.0612,0.0516,0.0486
MGESLFKGPRDYNPISSSICHYTNESDGHTTSLYGIGFGPFIITNKHLFRRNNGTLVVQSLHGVFKVKDTTTLQQHLVDGRDMIIIRMPKDFPPFPQKLKFREPQREERICLVTTNFQTKSMSSMVSDTSCTFPSGDGIFWKHWIQTKDGQCGSPLVSTRDGFIVGIHSASNFTNTNNYFTSVPKNFMELLTNQEAQQWVSGWRLNADSVLWGGHKVFMVKPEEPFQPVKEATQL [L22Y],0.0528,0.0638,0.0422,0.0491,0.0463,0.062,,0.0545,,0.0405,,,0.0584,0.0484,0.0457,0.0409,,
MGESLFKGPRDYNPISSSICHLANESDGHTTSLYGIGFGPFIITNKHLFRRNNGTLVVQSLHGVFKVKDTTTLQQHLVDGRDMIIIRMPKDFPPFPQKLKFREPQREERICLVTTNFQTKSMSSMVSDTSCTFPSGDGIFWKHWIQTKDGQCGSPLVSTRDGFIVGIHSASNFTNTNNYFTSVPKNFMELLTNQEAQQWVSGWRLNADSVLWGGHKVFMVKPEEPFQPVKEATQL [T23A],0.0274,0.0675,,0.0793,0.0656,0.0542,0.0677,0.0802,0.0604,,,0.0708,0.0676,0.0626,0.0463,0.0576,,0.058
MGESLFKGPRDYNPISSSICHLENESDGHTTSLYGIGFGPFIITNKHLFRRNNGTLVVQSLHGVFKVKDTTTLQQHLVDGRDMIIIRMPKDFPPFPQKLKFREPQREERICLVTTNFQTKSMSSMVSDTSCTFPSGDGIFWKHWIQTKDGQCGSPLVSTRDGFIVGIHSASNFTNTNNYFTSVPKNFMELLTNQEAQQWVSGWRLNADSVLWGGHKVFMVKPEEPFQPVKEATQL [T23E],0.0708,0.0684,0.0445,0.0657,0.0614,,,0.0458,0.0445,0.0725,,0.0712,0.0556,0.0618,,0.0555,0.0601,0.0746
MGESLFKGPRDYNPISSSICHLKNESDGHTTSLYGIGFGPFIITNKHLFRRNNGTLVVQSLHGVFKVKDTTTLQQHLVDGRDMIIIRMPKDFPPFPQKLKFREPQREERICLVTTNFQTKSMSSMVSDTSCTFPSGDGIFWKHWIQTKDGQCGSPLVSTRDGFIVGIHSASNFTNTNNYFTSVPKNFMELLTNQEAQQWVSGWRLNADSVLWGGHKVFMVKPEEPFQPVKEATQL [T23K],0.0647,0.0797,,0.0696,0.0794,0.0599,0.0772,0.0519,0.0611,0.0861,,,,0.0629,,0.0523,,
